# Measurements published in PubChem BioAssay AID686979 (National Center for Advancing Translational Sciences (NCATS), 2013).
# Hit rate of the full screen: of about 420,000 compounds, about 50,000 (12%) were called active. Inconclusive results, whose numbers are uncertain, are shown with a selection of clear calls. The call rests on the fitted dose curve; in most records, active means well fitted inhibition curve with a large enough effect; inconclusive means small, poorly fitted or top-dose-only effect; inactive means flat fitted curve, though single readings scatter. Potencies of inconclusive entries are left out as doubtful fits.
# Experiment: qHTS for Inhibitors of human tyrosyl-DNA phosphodiesterase 1 (TDP1): qHTS in cells in presence of CPT; further: nearly all actives have a fitted effect of over 55% in size
# Conditions: chicken DT40 Tdp1-/-;hTDP1 cells + 20 nM CPT, ATP luminescence, 48 h; activity change, negative = growth inhibition: at 46.2 µM (top of the series) unless noted
# Summary of the method: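 Chicken DT40 Tdp1-/- cells complemented with human TDP1, 400 cells/well, exposed to compounds plus 20 nM camptothecin for at least 48 h at 37 C; viability read as ATP content by CellTiter-Glo luminescence.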
# On the % scale 0 is the no-effect control and ±100 the full control effect; potency means the concentration at half of the fitted maximal effect; tags describe the fitted curve by direction and shape.
SMILES,Potency,"activity change, negative = growth inhibition"
C[C@]12CCC(=O)C=C1CC[C@@H]1[C@@H]2C(=O)C[C@@]2(C)[C@H]1CC[C@]2(O)C(=O)CO,"inconclusive [inhibitor, single point]",
Clc1ccc(CN2CC[C@H]3C=CCc4cccc(c43)C2)cc1,"inconclusive [inhibitor, single point]",
CCOc1ccccc1NC(=O)CN1Cc2ccccc2C1=O,inactive,
COc1ccc(C(=O)OCC(=O)c2cc(C)n(CC3CCCO3)c2C)cc1[N+](=O)[O-] (configuration not stated),"inconclusive [inhibitor, single point]",
COc1ccc(CNC(=O)c2ccc3c(Cl)c4c(nc3c2)CCCC4)c(OC)c1,"inconclusive [inhibitor, single point]",
Fc1ccc(-c2ccc(-c3nn4c(-c5ccco5)nnc4s3)o2)cc1,"inconclusive [inhibitor, single point]",
CCC/C(=N/NC(=O)c1cccc(Cl)c1)c1ccccc1,"inconclusive [inhibitor, single point]",
COc1ccccc1N(/N=C1\Sc2ccccc2C1=O)C(C)=O,inactive,
C[C@@H]1CC=C[C@H]2[C@H]1C(=O)N(Cc1ccccc1)[C@H]2c1ccc(-c2ccc(N(C)C)cc2)cc1F,active: 20.6 µM,
O=C(Nc1ccc2nsnc2c1)NC1CCCCC1,"inconclusive [inhibitor, single point]",
COc1ccc(S(=O)(=O)N(C)CC(=O)NCCC2=CCCCC2)cc1C,"inconclusive [inhibitor, single point]",
Cc1ccc(-c2nc3ccc(Br)cn3c2Cc2ccccc2)cc1,active: 14.6 µM,
Cc1ccn(CC(=O)N2CCCC(N3CCN(Cc4ccc5c(c4)OCO5)CC3)C2)n1 (configuration not stated),inactive,
CCCCc1ccc(NC(=O)COc2ccc(C(=O)Nc3ccccc3OCC)cc2)cc1,"inconclusive [inhibitor, full curve]",
Clc1ccc2[nH]c(-c3ccccc3)cc2c1,inactive,
CN(C)c1ncnc2ccc(-c3ccoc3)cc12,active: 18.4 µM,
Cc1cccc(Nc2cc(C)nc3nc(Cc4ccc(Cl)cc4)nn23)c1,active: 20.6 µM,
N#CN(CC(N)=O)c1nc(N2CCCCC2)nc(N2CCCCC2)n1,"inconclusive [inhibitor, partial curve, poor fit]",
CCSc1nnc(NC(=O)C2C3C=CC(C3)C2C(=O)O)s1 (configuration not stated),inactive,
COc1ccc(-n2nc(C(C)=O)c(=O)[nH]c2=O)cc1,inactive,
Cc1ccc2c(c1)C(c1ccccc1)N(C(=O)c1cccc([N+](=O)[O-])c1)CC(=O)N2 (configuration not stated),"inconclusive [inhibitor, single point]",
Cc1ccc(Cn2cc3c(n2)-c2c(oc(C(=O)Nc4ccc(F)cc4F)c2C)CC3)cc1,"inconclusive [inhibitor, single point]",
Cc1ccc(-c2csc(NC(=O)C3=NN(c4ccccc4)C(=O)CC3)n2)cc1,"inconclusive [inhibitor, single point]",
O=C(CSc1nc2ccccc2s1)N1c2ccccc2Sc2ccc(C(F)(F)F)cc21,"inconclusive [inhibitor, single point]",

SMILES,Potency,"activity change, negative = growth inhibition"
Nn1c(SCC(=O)N2CCOCC2)nnc1-c1cccnc1,inactive,
OC(c1ccccc1)(c1nc(-c2csc3ccccc23)cs1)C(F)(F)F (configuration not stated),"inconclusive [inhibitor, single point]",
Cn1c2c(c(=O)n(C)c1=O)C(c1ccccc1F)C(C#N)=C(N)O2 (configuration not stated),"inconclusive [inhibitor, single point]",
COc1ccc(/C=N/NC(=O)C2C(C=C(Cl)Cl)C2(C)C)c(OC)c1 (configuration not stated),"inconclusive [inhibitor, partial curve]",
COc1ccc(-c2cc3nc(NCc4ccc(NC(C)=O)cc4)n(C)c(=O)c3s2)cc1OC,inactive,
Cc1ccc(C(=O)c2ccc(C)cc2)cc1,,inconclusive: -31.8% [inhibitor]
CC1CCC(NC(=O)c2ccc(NS(=O)(=O)c3ccc4[nH]c(=O)[nH]c4c3)cc2)CC1 (configuration not stated),"inconclusive [inhibitor, single point]",
Cc1cc(C)cc(NC(=O)CNC(c2ccccc2)c2ccccc2)c1,"inconclusive [inhibitor, single point]",
CC(C)(C)c1ccc(S(=O)(=O)N2CC(=O)Nc3ccccc32)cc1,inactive,
Cn1cc(CNC(=O)C2CCC(=O)N(Cc3ccc(Cl)cc3)C2)cn1 (configuration not stated),inactive,
Cc1c(Cc2ccc3c(c2)OCO3)sc(NC(=O)C(C)(C)C)c1C#N,active: 18.4 µM,
O=C(CN1CCN(S(=O)(=O)c2ccc(Br)s2)CC1)N1CCc2ccccc21,"inconclusive [inhibitor, single point]",
COc1ccc2c(CN(C)Cc3ccccc3)cc(=O)oc2c1,"inconclusive [inhibitor, single point]",
O=C(c1ccco1)N1N=C(c2ccc(Br)cc2)CC1c1ccco1 (configuration not stated),active: 8.2 µM,
O=C(NCCO)c1ccc(Oc2ccc(C(F)(F)F)cc2[N+](=O)[O-])cc1,inactive,
CCOc1cc(N2CCOCC2)c(OCC)cc1NC(=O)CCS(=O)(=O)c1ccc(Cl)cc1,active: 4.11 µM,
CC(C)N1CCc2c(sc(NC(=S)NC(=O)c3ccccc3)c2C#N)C1,inactive,
CCN(Cc1ccccc1)C1CCN(Cc2ccc(SC)cc2)CC1,"inconclusive [inhibitor, single point]",
CCN(C(=O)COC(=O)c1ccc(=O)n(Cc2ccccc2)n1)C1CCCCC1,inactive,
C=CCn1cnc2c(c1=O)c1nc3ccccc3nc1n2/N=C/c1cccc(OC)c1,inactive,
NC(=O)C1CCN(C(=O)CN2CCN(c3cccc(C(F)(F)F)c3)CC2)CC1,inactive,
O=C(NC1CCCC1)C(c1cccs1)N(CC1CCCO1)C(=O)Cc1cccs1 (configuration not stated),"inconclusive [inhibitor, partial curve]",
CCN(CC)CCOC(=O)C(Cc1ccco1)Cc1cccc2ccccc12 (configuration not stated),"inconclusive [inhibitor, single point]",
